Not every detail of the peptide structures is certain; ends, links or a residue may be inferred. Starred links: 1 amine or outer side, 2 acyl side, 3 side chain; linkers in the order of their positions; H or OH if unused. Positions of bridges follow the written chain, without caps; N, C: chain ends. Residues, ends and D or L forms follow the SMILES beside them. No end group written: not given here. X7 = O=C(C[*:1])Nc1cc(F)c(NC(=O)C[*:2])cc1F
Assay: Measurement of LogK (log k IAM by HPLC on IAM.PC.DD2 column)
Type: physicochemical
Settings: 50 mM ammonium acetate pH 7.4 / acetonitrile, 30° C.
Protocol: Measurement of LogK: LogK values were measured on a Agilent 1260 HPLC with UV detector (254,280 nm) using a IAM.PC.DD2 100×4.6 mm column (Regis Technologies 1-774011-300) with a 6.5 min gradient of 0-90% B with mobile phase A of 50 mM ammonium acetate pH 7.4, and mobile phase B of Acetonitrile. The temperature was 30° C., the flow rate 1.5 mL/min, and the injection volume 3-5 uL. Calibration mixture IAM was purchased from Bio-mimetic Chromatography Ltd and used to run calibration, calculate CHI IAM value, then calculate logk IAM using equation: log k IAM=0.046*CHI IAM+0.42.

LogK | Compound
1.21 | CC[C@H](C)[C@@H]1NC(=O)[C@H](CC(C)C)NC(=O)[C@H](C)NC(=O)[C@H](C)NC(=O)[C@H](Cc2c[nH]cn2)NC(=O)[C@H](CCC(=O)O)NC(=O)[C@@H](NC(=O)[C@H](C)NC(=O)[C@H](Cc2c[nH]c3ccccc23)NC(=O)[C@H](CC(C)C)NC(=O)[C@H](C)NC(=O)[C@@H]2CCCN2C(=O)[C@H](CC(=O)O)NC(=O)[C@H](C)N)CSCC(=O)Nc2cc(F)c(cc2F)NC(=O)CSC[C@@H](C(=O)N[C@@H](CCC(=O)O)C(=O)N[C@H](C(=O)N[C@@H](CCC(N)=O)C(N)=O)[C@@H](C)O)NC1=O [Compound 41] (H-ADPALWACEHAALICETQ-NH2; linker 8-15 via X7; N-terminus and C-terminus assumed)
1.3 | CC(C)C[C@@H]1NC(=O)[C@H](C)NC(=O)[C@H](C)NC(=O)[C@H](Cc2c[nH]c3ccccc23)NC(=O)[C@H](CCC(=O)O)NC(=O)[C@@H](NC(=O)[C@H](CCCNC(=N)N)NC(=O)[C@H](Cc2c[nH]cn2)NC(=O)[C@@H](NC(=O)[C@H](C)NC(=O)[C@@H]2CCCN2C(=O)[C@H](CC(=O)O)NC(=O)[C@H](C)N)[C@@H](C)O)CSCC(=O)Nc2ccc(cc2)NC(=O)CSC[C@@H](C(=O)N[C@@H](CCC(=O)O)C(=O)N[C@@H](CC(C)C)C(=O)N[C@H](C(N)=O)C(C)C)NC(=O)[C@H](Cc2c[nH]cn2)NC1=O [Compound 1]
1.69 | GPAKPEAPGEDASPLELNLYYLDLHDYLQQVA-NH2 (C-terminus assumed) [Compound 30]

— patent US12398178B2, “Collections of peptides, peptide agents, and methods of use thereof” (Parabilis Medicines, Inc., priority 2018, dated 2025)
